Article PMC4336329 (PLoS ONE, 2015)
Screen size: about 310,000 compounds; about 2,200 (0.71%) showed an effect of 50% or more. Effects have a minus sign here. Some of the results follow.

Molecular target: human ether-à-go-go-related gene (hERG) potassium channel (human, UniProt Q12809)
Assay: primary screen, population patch clamp on CHO cells stably expressing hERG

Chain of human ether-à-go-go-related gene (hERG) potassium channel (Q12809 whole entry, looked up): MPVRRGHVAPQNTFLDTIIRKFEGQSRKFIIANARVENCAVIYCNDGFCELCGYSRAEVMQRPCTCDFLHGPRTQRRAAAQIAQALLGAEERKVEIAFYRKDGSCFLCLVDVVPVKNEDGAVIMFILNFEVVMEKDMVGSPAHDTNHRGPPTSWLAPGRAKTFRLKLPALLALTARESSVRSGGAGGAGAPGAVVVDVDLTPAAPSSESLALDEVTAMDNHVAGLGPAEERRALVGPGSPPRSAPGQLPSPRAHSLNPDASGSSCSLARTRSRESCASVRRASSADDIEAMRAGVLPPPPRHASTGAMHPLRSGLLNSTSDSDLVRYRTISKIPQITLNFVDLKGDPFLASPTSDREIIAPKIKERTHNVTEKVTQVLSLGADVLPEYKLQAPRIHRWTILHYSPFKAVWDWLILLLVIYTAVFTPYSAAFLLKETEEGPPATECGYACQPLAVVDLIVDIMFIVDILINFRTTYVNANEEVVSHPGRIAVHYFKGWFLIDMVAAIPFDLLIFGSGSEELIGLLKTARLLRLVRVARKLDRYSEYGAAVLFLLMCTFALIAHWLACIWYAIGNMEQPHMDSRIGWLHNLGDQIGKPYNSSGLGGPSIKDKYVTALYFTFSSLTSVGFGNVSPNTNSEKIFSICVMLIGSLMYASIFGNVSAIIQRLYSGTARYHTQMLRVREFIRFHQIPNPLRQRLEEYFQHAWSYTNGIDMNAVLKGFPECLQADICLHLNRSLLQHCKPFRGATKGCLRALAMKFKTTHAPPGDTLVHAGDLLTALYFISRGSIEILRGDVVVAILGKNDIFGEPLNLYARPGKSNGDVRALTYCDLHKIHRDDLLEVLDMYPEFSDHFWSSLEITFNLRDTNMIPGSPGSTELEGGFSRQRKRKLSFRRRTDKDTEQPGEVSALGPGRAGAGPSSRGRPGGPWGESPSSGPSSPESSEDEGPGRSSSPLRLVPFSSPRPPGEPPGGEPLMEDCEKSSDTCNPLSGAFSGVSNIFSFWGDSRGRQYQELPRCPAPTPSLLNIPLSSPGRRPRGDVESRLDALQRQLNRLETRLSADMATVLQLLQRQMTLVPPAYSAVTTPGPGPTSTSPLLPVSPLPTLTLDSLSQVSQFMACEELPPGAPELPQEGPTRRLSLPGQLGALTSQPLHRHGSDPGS

Row | Structure (SMILES) | hERG current change (%, negative = inhibition) at 1uM [%]
1 | CCCSc1nc2c(cnn2-c2ccc(Cl)cc2)c(=O)[nH]1 | 8.11
2 | CCN1C(=O)c2ccccc2S(=O)c2ccc(C(=O)N3CCCC3)cc21 (stereo not shown) | 6.27
3 | O=C(CN(c1ccccc1)S(=O)(=O)c1ccc(F)cc1)NCc1cccs1 | 10.3
4 | O=C1/C(=C/c2cccnc2)N2CCC1CC2 | 20.1
5 | O=C(COC(=O)C1CCC1)c1c[nH]c2ccccc12 | 12.8
6 | COc1cc(O)c(C(CCN2CCCC2)c2ccc3c(c2)OCO3)c(OC)c1 (stereo not shown) | -41.5
7 | Cc1cccc(/C=N/NC(=O)NC2CCCCC2)c1 | 11.8
8 | CC1=NN(C(C#N)c2ccccc2)C(c2ccccc2)C1 (stereo not shown) | 8.25
9 | COc1ccc(CN2CCNC(=O)C2CC(=O)NC2CCCCCC2)cc1C (stereo not shown) | 2.65
10 | CN(C(=O)CSc1nnc(-c2n[nH]c3ccccc23)o1)c1ccccc1 | 11.7
11 | CCCCCCc1nc2ccccc2c(=O)n1N | 7.3
12 | Cc1ccc(CC(=O)Nc2ccc(C(=O)N3CCOCC3)cc2)cc1 | -10.2
13 | O=C(NC(=S)Nc1ccccc1O)c1ccc(Cl)cc1Cl | 16.5
14 | CCN(CC)S(=O)(=O)c1ccc2c(c1)N(CC(=O)Nc1ccc(NC(C)=O)cc1)C(=O)CO2 | 10.6
15 | O=c1c2ccccc2ncn1CCCCOc1ccc(Br)cc1 | 5.19
16 | COCCNC(=S)N(Cc1cc2cc(C)ccc2n2nnnc12)C1CCCC1 | 13.4
17 | Cc1ccc(NC(=O)CNS(=O)(=O)c2cccs2)cc1F | -7.86
18 | CN1CCN(S(=O)(=O)c2ccc(N3CCN(c4ccccc4Cl)CC3)nc2)CC1 | 12.5
19 | O=C1NC(=Nc2ccccc2Cl)S/C1=C\c1ccc(C(=O)O)cc1 | 3.44
20 | CC(Oc1ccc(Cl)cc1)/C(N)=N/O.Cl (stereo not shown) | 9.07
21 | Cn1c(CCN2CCN(c3ccc(F)cc3)CC2)nc2cc(NC(=O)c3ccco3)ccc21 | -27.9
22 | O=C1CC(N(CCc2ccccc2)C(=S)Nc2cc(Cl)ccc2Cl)C(=O)N1c1c(Cl)cccc1Cl (stereo not shown) | 6.08

Row | Structure (SMILES) | hERG current change (%, negative = inhibition) at 1uM [%]
23 | O=C(NCCCN1CCCC1=O)c1cccc(S(=O)(=O)NCc2ccccc2)c1 | 4.73
24 | CCOC(=O)N1CCN(C(=O)CSCc2ccc(C)cc2)CC1 | 0.197
25 | O=C(NCCc1nnc2ccc(NCCCN3CCOCC3)nn12)c1ccccc1 | 12
26 | OC(c1cccs1)(c1cccs1)C1C[N+]2(CF)CCC1CC2.[Cl-] (stereo not shown) | 6.78
27 | Nc1nonc1-c1nc2ccccc2n1Cc1ccccc1 | 0.474
28 | COc1ccc(C(=O)NCCN=C2NS(=O)(=O)c3ccccc32)cc1 | 12.8
29 | Cn1cc(C(=O)N2CCN(c3ccccc3)CC2)c(=O)c2cc(S(=O)(=O)N3CCCC3)ccc21 | 20.3
30 | COC(=O)CNC(=O)CSc1ccccn1 | 5.64
31 | O=C(c1ccc(Cl)cc1)N1CCN(c2ccc([N+](=O)[O-])c(NCc3cccnc3)c2)CC1 | 5.11
32 | O=C(O)CCS(=O)(=O)Cc1cccc(Cl)c1 | 0.844
33 | O=C(NCCO)C(=O)c1c(-c2ccc(Cl)cc2)cc2ccccn12 | 5.27
34 | COc1cc(COCC(O)CN2CCN(Cc3ccccc3)CC2)cc(OC)c1OC.Cl (stereo not shown) | -8.78
35 | C=CCn1c(CNC(=O)c2ccco2)nnc1SCC(=O)c1ccc(F)cc1 | 8.56
36 | O=S(=O)(Cc1cc(Cl)nc(-c2ccncc2)n1)c1ccccc1 | 3.95
37 | Fc1ccccc1NC(=S)NCc1ccccc1 | 3.72
38 | CS(=O)(=O)N(Cc1ccc(C(=O)NN=C2CCCC2)cc1)c1ccccc1 | 8.63
39 | O=C(CN1C(=O)c2ccccc2C1=O)Nc1sc2c(c1C(=O)NCc1ccco1)CCCC2 | 19.2
40 | CC1(Cc2ccc3c(c2)OCO3)NC(=O)NC1=O (stereo not shown) | 12.8
41 | COc1cccc2c(Nc3ccccc3C)cc(C)nc12.Cl | -2.86
42 | Cc1cc(NS(=O)(=O)c2ccc(NC(=O)/C=C/c3ccccc3)cc2)no1 | 11.7
43 | C/C(=N\NC(=O)CC1(C)OCCO1)c1cccs1 | 11.1
44 | CC(=O)N1CN(Cc2ccccn2)Cc2c1sc1c2CCCC1 | 1.45

Row | Structure (SMILES) | hERG current change (%, negative = inhibition) at 1uM [%]
45 | Cc1cccc(C(=O)Nc2nnc(-c3ccncc3)o2)c1 | 3.55
46 | O=C(NCc1nnnn1-c1ccc(Cl)cc1)c1ccc(Br)o1 | 2.45
47 | CCOC(=O)c1cnc(SCC(=O)Nc2cccc(OC)c2)nc1N | 2.27
48 | CCOc1ccc(NC(=S)N2CCCN(Cc3cccc(Cl)c3)C2)cc1 | 6.77
49 | Cn1cnnc1SCC(=O)c1cc2ccccc2o1 | 5.73
50 | COc1ccc(Nc2nnc(SCc3cc([N+](=O)[O-])cc4c3OCOC4)s2)cc1 | 29.5
51 | Br.N=c1n(CC(=O)c2ccc([N+](=O)[O-])cc2)c2ccccc2n1Cc1ccc(Cl)cc1 | 3.8
52 | CN(C)C(=O)c1nc2ccccc2s1 | 12.6
53 | CN1C(=O)/C(=C/c2cn(CC(=O)NCc3ccco3)c3ccccc23)NC1=S | 7.56
54 | CO/N=C/NC(=O)c1ccc([N+](=O)[O-])c(CS(=O)(=O)c2ccc(Cl)cc2)c1 | 6.28
55 | COCCNC(=O)c1cc2c(=O)[nH]c3ccccc3c2s1 | 13.5
56 | COC(=O)CCc1c(C)c(C(=O)c2cccc(OC)c2OC)c2ccccn12 | -1.5
57 | Cn1ncc(Cl)c1C(=O)NCc1ccc(Cl)cc1 | 2.58
58 | Cc1cc(SCC(=O)N(C)CC(=O)Nc2ccc(F)cc2)nc2ccccc12 | -6.3
59 | Cc1noc(C)c1COC(=O)c1ccc2ccccc2n1 | -7.95
60 | CN1CCC(N(C)C(=O)CNC(=O)c2ccc(C(C)(C)C)cc2)CC1 | 8.48
61 | O=C(c1ccc(=O)oc1)N1CCC(C(O)(c2ccccc2)c2ccccc2)CC1 | 10.9
62 | O=C(O)C1=C[C@@H](c2ccccc2)C[C@@H](OCc2ccc(CO)cc2)O1 | 18.4
63 | C#CCn1c(=NC(=O)c2ccco2)sc2cccc(Cl)c21 | 6.96
64 | CC(=O)c1ccc(N2CCN(C(=O)c3cc(C)on3)CC2)cc1 | -5.03
65 | CCOc1ccc(N2CC(NS(=O)(=O)c3cccnc3)CC2=O)cc1 (stereo not shown) | 0.221
66 | COCCNC(=O)c1c[nH]c2ccc(S(=O)(=O)N(C)c3ccc(C)c(C)c3)cc2c1=O | -6.83

Row | Structure (SMILES) | hERG current change (%, negative = inhibition) at 1uM [%]
67 | COc1ccc(NC2CCCN(C(=O)CCc3scnc3C)C2)cc1 (stereo not shown) | 15.5
68 | COC(=O)C1=NNC2(C)C(=O)N(c3ccc(C)cc3)C(=O)C12 (stereo not shown) | 13.6
69 | COc1ccc(OC)c(CCNC(=O)C2CCN(c3ncnc4c3nc3n4CCCCC3)CC2)c1 | 1.42
70 | O=C(COc1nsnc1N1CCOCC1)Nc1cccc(Cl)c1 | 1.5
71 | NS(=O)(=O)c1ccc(NC(=O)CCC(=O)N2CCOCC2)cc1 | 14
72 | COc1ccc(OC)c(-n2c(-c3cc(-c4ccco4)[nH]n3)n[nH]c2=S)c1 | 9.23
73 | CCCCCCCCCOC1OC(CO)C(O)C(O)C1NC(C)=O (stereo not shown) | 7.17
74 | COCc1nnc(NC(=O)C2CCN(C(=O)c3ccco3)CC2)s1 | 18.7
75 | COC(=O)c1[nH]c2cc(OC)ccc2c1NC(=O)CN1CCN(c2cccc(C)c2)C(C)C1 (stereo not shown) | 10.3
76 | COc1ccc(OC)c(-c2cc(C3CCN(c4ncccc4[N+](=O)[O-])CC3)[nH]n2)c1 | 6.64
77 | COc1ccc(C(=O)NCCc2ccccn2)cc1S(=O)(=O)Nc1ccc(Br)cc1 | -5.26
78 | CCN1C(=O)[C@H]2[C@H]3[C@H](O)[C@H](O)C/C(=N\O[C@H](C)c4cn([C@H](CO)Cc5ccccc5)nn4)[C@@H]3CC[C@H]2C1=O | 8.69
79 | CCOc1ccc(NC(=S)N2CCN(C/C=C/c3ccccc3)CC2)cc1 | 0.394
80 | COc1cc(SC)ccc1C(=O)N1CCc2ccccc21 | 13.9
81 | Cc1nc2c3ccccc3nc(NNC(=O)CCC(=O)NCCC(C)C)n2n1 | 9.46
82 | O=c1[nH]c(/C=C/c2ccccc2Cl)c([N+](=O)[O-])c(=O)[nH]1 | 10.1
83 | Cc1ccc(CC(=O)Nc2cccc(C#N)c2)cc1 | 16
84 | O=C(NC(=S)Nc1ccc(CN2CCOCC2)cc1)c1cc2ccccc2o1 | 14.7
85 | CCOc1cc(/C=C2\N=C(SC(C)C(N)=O)N(c3ccc(OC(F)F)cc3)C2=O)ccc1O (stereo not shown) | 11.9
86 | COc1ccc(C(=O)N2CCC(C(N)=O)CC2)cc1S(=O)(=O)N1CCCC1 | 12.1
87 | COc1ccc(CCNC(=O)C2CC(=O)N(C3CCCCC3)C2)cc1OC (stereo not shown) | 21.5
88 | COc1ccc(CNC(=O)COC(=O)c2n[nH]c3ccccc23)cc1OC | -16.1
